Several values for one entry are separate records, joined by “and”; a condition that tells them apart may be missing. Equal values may be shown once. Where a name gives a salt, the structure may show the parent alone. ± gives the standard deviation of the averaged measurements. The full ranking holds about 2,600 compounds; the median of “MBP+ mature oligodendrocyte number relative to DMSO vehicle control” is about -0.34, and the highest 2% start at about 13. The list shows a part of the results.
The compounds below were run on jimpy (Plp1 jimpy) mouse iPSC-derived oligodendrocyte progenitor cells (assay: MBP+ mature oligodendrocyte number relative to DMSO vehicle control (SDs above negative control mean); higher = more surviving jimpy oligodendrocytes (rescue)). Details: 10 µM; 3 days.
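Also: 10 µM single dose with 3-day oligodendrocyte differentiation.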

Compound	MBP+ mature oligodendrocyte number
CN(C[C@@H]1COCCO1)S(=O)(=O)Nc1ccc2ccc3ncc(-c4cnn(C)c4)cc3c(=O)c2c1	-5.93
COc1cccc(OC)c1OCCNCC1CSc2ccccc2O1 (stereo not drawn) [Benoxathian hydrochloride]	2.16
O=C(CSc1nc2c(c(=O)n1-c1ccccc1)SCC2)Nc1ccc(-c2ccccc2)cn1	1.84
CCC(C)(C)C(=O)O[C@H]1C[C@@H](C)C=C2C=C[C@H](C)[C@H](CC[C@@H]3C[C@@H](O)CC(=O)O3)[C@H]21 [Simvastatin]	< -5.15
CC(=O)Oc1ccc(C(c2ccc(OC(C)=O)cc2)c2ccccn2)cc1 [Bisacodyl]	5.31
CCOC(=O)CC(=O)N1CCSC1COc1ccccc1OC (stereo not drawn) [Moguisteine]	0.342
CCN1CCCC1CNC(=O)c1cc(S(N)(=O)=O)ccc1OC (single isomer, unassigned; (-)) [(-)-Sulpiride]	-0.604
CN1CCN2c3ccccc3Cc3ccccc3C2C1 (stereo not drawn) [Mianserin HCl]	-6.09
CN1CCN2c3ccccc3Cc3ccccc3C2C1 (stereo not drawn) [Mianserin hydrochloride]	-3.42
CCCCCCCCOc1ccccc1C(=O)Nc1ccc(C(=O)OCC[N+](C)(CC)CC)cc1 [Otilonium Bromide]	3.2
N[C@@H](Cc1ccc(O)c(O)c1)C(=O)O [L-3,4-Dihydroxyphenylalanine]	0.293
CCCCc1ncc(/C=C(\Cc2cccs2)C(=O)O)n1Cc1ccc(C(=O)O)cc1 [Eprosartan Mesylate]	-1.37
CCCCc1ncc(/C=C(\Cc2cccs2)C(=O)O)n1Cc1ccc(C(=O)O)cc1 [Eprosartan mesylate]	-0.206
CCc1ccc(OCc2ccccc2C(=O)Nc2ccc3nc(C)cc(N)c3c2)cc1	< -6.01
CN(C)CCc1c[nH]c2ccc(CS(=O)(=O)N3CCCC3)cc12 [Almotriptan Malate]	1.07
Cn1nc(C(C)(C)C)cc1C(=O)N[C@@H](Cc1cccc(Cl)c1)C(=O)NCC#N [Cathepsin Inhibitor 1]	-0.61
CN(c1ncccc1CNc1nc(Nc2ccc3c(c2)CC(=O)N3)ncc1C(F)(F)F)S(C)(=O)=O	< -6.01 and -6.1
CC(CNC(=O)c1cccnc1)NC(=O)c1cccnc1 (stereo not drawn) [Nicaraven]	1.84
O=C(Nc1ccccc1)N1CCN(c2nc(-c3ccccc3)ns2)CC1	7.25
O=C(NC(Cc1cc(=O)[nH]c2ccccc12)C(=O)O)c1ccc(Cl)cc1 (stereo not drawn) [Rebamipide]	-0.377
CCN1C(=O)C=CC1=O [N-Ethylmaleimide]	-0.073
CC(C)c1cc(C(C)C)c(CC(=O)NS(=O)(=O)Oc2c(C(C)C)cccc2C(C)C)c(C(C)C)c1 [Avasimibe]	0.731
O=C(NNc1nc2cc(F)ccc2n2cccc12)c1cnccn1	< -6.35
C[N+](C)(C)CCOC(N)=O [Carbachol]	-0.236
COC(=O)/C=C/C(=O)OC [Dimethyl Fumarate]	-0.612
CCOC(=O)C1=C(C)NC(C)=C(C(=O)OC)C1c1cccc(Cl)c1Cl (stereo not drawn) [Felodipine]	9.79 ± 0.78
Cc1nc2sccn2c(=O)c1CCN1CCC(=C(c2ccc(F)cc2)c2ccc(F)cc2)CC1 [Ritanserin]	2.29

Compound	MBP+ mature oligodendrocyte number
O=C1c2c(O)ccc(O)c2C(=O)c2c(NCCNCCO)ccc(NCCNCCO)c21 [Mitoxantrone HCl]	< -4.81
O=C1c2c(O)ccc(O)c2C(=O)c2c(NCCNCCO)ccc(NCCNCCO)c21 [Mitoxantrone]	< -3.97
CCOC(=O)c1ccc(NC2CCCCC2)c(N)c1 [Ferrostatin-1 (Fer-1)]	5.47
CCOC(=O)c1ccc(NC2CCCCC2)c(N)c1 [Ferrostatin-1]	3.81
Cc1ccc(Nc2nccc(N(C)c3ccc4c(C)n(C)nc4c3)n2)cc1S(N)(=O)=O [Pazopanib]	-2.91
Cc1ccc(Nc2nccc(N(C)c3ccc4c(C)n(C)nc4c3)n2)cc1S(N)(=O)=O	-1.72
CCc1ccc(/C=C2/SC(=S)NC2=O)cc1	1.19 ± 1.6
CCCCC(=O)N(Cc1ccc(-c2ccccc2-c2nnn[nH]2)cc1)[C@H](C(=O)O)C(C)C [Valsartan]	-0.557
COc1cc(Nc2ncc3c(n2)-c2ccc(Cl)cc2C(c2c(F)cccc2OC)=NC3)ccc1C(=O)O [Alisertib (MLN8237)]	-3.03
C=CCNc1ncnc2ccc(Br)cc12	-1.35
CCOC(CN1CCN(CC(C)C(=O)c2ccccc2)CC1)c1ccccc1 (stereo not drawn) [Eprazinone 2HCl]	4.71
OCC(CO)N[C@H]1C[C@](O)(CO)[C@@H](O)[C@H](O)[C@H]1O [Voglibose]	1.08
O=C(O)c1cc(=O)c2ccccc2[nH]1 [Kynurenic acid]	2.3
Cc1cnc(NC(=O)Nc2cc(Br)c(C)cc2OC[C@@H]2CNCCO2)cn1	< -6.01
Cc1c(C(=O)Nc2ccc(N3C[C@@H](C)O[C@@H](C)C3)nc2)cccc1-c1ccc(OC(F)(F)F)cc1 [LDE225 (NVP-LDE225,Erismodegib)]	-2.74
Nc1cc(C(F)(F)F)c(-c2cc(N3CCOCC3)nc(N3CCOCC3)n2)cn1 [BKM120 (NVP-BKM120, Buparlisib)]	-4.7
CC(C)NNC(=O)c1ccncc1 [Iproniazid phosphate]	-0.245
Cc1ccc(Sc2cncc3sc(C(N)=O)cc23)cc1	1.14
CN1c2ccccc2C(=O)N2CCc3c([nH]c4ccccc34)C21 (stereo in doubt) [Evodiamine]	-2.4
O=c1cc(N2CCOCC2)oc2c(-c3ccccc3)cccc12	-0.153
O=c1cc(N2CCOCC2)oc2c(-c3ccccc3)cccc12 [LY-294,002 hydrochloride]	-1.77
CN1C(C(=O)Nc2ccccn2)=C(O)c2sc(Cl)cc2S1(=O)=O [Lornoxicam]	0.433
CC12CC3CC(C)(C1)CC(N)(C3)C2 [Memantine HCl]	0.433
CC12CC3CC(C)(C1)CC(N)(C3)C2 [Memantine hydrochloride]	-0.206
Cc1ccc(CNc2ncnc3ccc(-c4ccc(CO)o4)cc23)o1	-0.386
COc1ccc(-c2cc(=O)c3c(OC)c(OC)c(OC)c(OC)c3o2)cc1 [Tangeretin]	-4.14
